Measurements reported in publication PMC4336329 (PLoS ONE, 2015).
About 2,200 (0.71%) of roughly 310,000 compounds showed an effect of 50% or more. The effect is printed as a negative number. The list shows a part of the results.

These compounds were tested against human ether-à-go-go-related gene (hERG) potassium channel (human, UniProt Q12809) (assay: primary screen, population patch clamp on CHO cells stably expressing hERG).
Sequence of human ether-à-go-go-related gene (hERG) potassium channel (Q12809 whole entry, looked up): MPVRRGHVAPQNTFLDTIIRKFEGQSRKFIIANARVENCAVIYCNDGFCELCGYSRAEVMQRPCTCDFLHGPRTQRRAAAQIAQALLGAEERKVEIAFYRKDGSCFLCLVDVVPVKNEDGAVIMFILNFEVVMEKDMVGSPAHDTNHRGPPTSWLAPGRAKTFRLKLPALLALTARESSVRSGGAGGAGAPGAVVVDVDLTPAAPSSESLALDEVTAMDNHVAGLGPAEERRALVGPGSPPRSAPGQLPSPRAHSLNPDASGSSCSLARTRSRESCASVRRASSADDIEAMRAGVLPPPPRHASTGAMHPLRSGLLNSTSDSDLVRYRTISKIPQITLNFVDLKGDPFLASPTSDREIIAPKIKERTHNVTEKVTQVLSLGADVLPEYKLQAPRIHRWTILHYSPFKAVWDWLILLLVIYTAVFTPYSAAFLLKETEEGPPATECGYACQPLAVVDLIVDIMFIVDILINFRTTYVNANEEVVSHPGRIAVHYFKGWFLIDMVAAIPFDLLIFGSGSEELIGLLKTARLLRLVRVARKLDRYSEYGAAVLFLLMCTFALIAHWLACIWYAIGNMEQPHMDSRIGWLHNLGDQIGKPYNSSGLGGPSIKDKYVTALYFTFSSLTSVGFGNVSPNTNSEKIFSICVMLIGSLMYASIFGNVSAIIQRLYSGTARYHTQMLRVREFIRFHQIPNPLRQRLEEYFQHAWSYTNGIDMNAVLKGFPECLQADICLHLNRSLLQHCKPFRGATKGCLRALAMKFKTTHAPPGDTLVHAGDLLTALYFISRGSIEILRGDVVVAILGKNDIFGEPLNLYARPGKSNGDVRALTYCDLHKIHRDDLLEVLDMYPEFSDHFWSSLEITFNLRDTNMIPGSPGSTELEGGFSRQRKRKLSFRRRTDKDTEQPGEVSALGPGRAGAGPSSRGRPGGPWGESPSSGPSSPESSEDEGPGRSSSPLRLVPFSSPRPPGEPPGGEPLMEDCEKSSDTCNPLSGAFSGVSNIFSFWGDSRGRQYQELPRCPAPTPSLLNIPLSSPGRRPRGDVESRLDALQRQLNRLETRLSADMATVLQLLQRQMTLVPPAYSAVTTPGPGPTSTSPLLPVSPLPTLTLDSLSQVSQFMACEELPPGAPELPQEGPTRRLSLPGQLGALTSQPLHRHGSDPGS

First: CCN(CC)S(=O)(=O)c1ccc(OCC(=O)NC(=O)c2ccccc2OC)c([N+](=O)[O-])c1
Second: COc1ccc(NC(=O)COc2ccccc2)c(OC)c1
The “hERG current change (%, negative = inhibition) at 1uM” value of the first is higher: 9.96% for the first, -4.37% for the second.

First: CCOC(=O)c1ccccc1NC(=O)COC(=O)c1ccccc1C(=O)N(C)c1ccccc1
Second: CN(C(=O)CC(NC(=O)c1ccccc1Cl)c1ccccc1)c1ccccc1 (centres unmarked)
The “hERG current change (%, negative = inhibition) at 1uM” value of the first is lower: -2.8% for the first, -1.53% for the second.

Compared with CC(C)[C@H](NC(=O)C1CCN(C(=O)[C@@H]2CCCN2)CC1)C(=O)NCc1ccc(F)cc1, CC(C)C(NC(=O)c1c(F)cccc1F)C(=O)NCc1ccc(S(=O)(=O)N2CCOCC2)cc1 (centres unmarked) is lower in “hERG current change (%, negative = inhibition) at 1uM” value: 16.8% for the first, 3.72% for the second.

First: CC1(c2ccc3ccccc3c2)NC(=O)N(CC(=O)N2CCN(Cc3ccccc3)CC2)C1=O (centres unmarked)
Second: COc1ccccc1N1CCN(C(=O)CSc2nc(-c3ccccc3)cc(=O)[nH]2)CC1
The “hERG current change (%, negative = inhibition) at 1uM” value of the first is higher: 8.98% for the first, 3.09% for the second.

Compared with COc1ccc(-[n+]2c(C)cc(/C=C3\Sc4ccccc4N3C)cc2C)cc1.[I-], COc1ccc(C(CNC(=O)c2cccc(NS(=O)(=O)c3ccc(C)c(F)c3)c2)N(C)C)cc1 (centres unmarked) is lower in “hERG current change (%, negative = inhibition) at 1uM” value: 3.65% for the first, -17.5% for the second.

First: C#CCOCCOCCOCCNc1nc(N2CCN(C(=O)C([C@@H](C)CC)n3cc(C(N)CO)nn3)CC2)nc(N2CCN(C(=O)C([C@@H](C)CC)n3cc(C(N)COC(=O)C(F)(F)F)nn3)CC2)n1.Cl (some centres unmarked)
Second: C#CCOCCOCCOCCNc1nc(N2CCN(C(=O)Cn3cc(CC(C)O)nn3)CC2)nc(N2CCN(C(=O)[C@H](C)n3cc(CCC[NH+]=C(N)N)nn3)CC2)n1.[Cl-] (some centres unmarked)
The “hERG current change (%, negative = inhibition) at 1uM” value of the first is higher: 19.6% for the first, 11.9% for the second.

Compared with COc1ccccc1CNC(=O)C(=O)NCC1OCCN1S(=O)(=O)c1ccc2c(c1)OCCO2 (centres unmarked), COc1ccccc1N1CCN(S(=O)(=O)c2ccc3c(c2)CC(C)N3C(C)=O)CC1 (centres unmarked) is lower in “hERG current change (%, negative = inhibition) at 1uM” value: 13% for the first, 3.56% for the second.

Going from CC(=O)C1=C(C)N(CC2CC2)C(=O)N[C@H]1c1cccs1 to O=C1C2CCCN2C(c2cccs2)N1c1ccccn1 (centres unmarked), the “hERG current change (%, negative = inhibition) at 1uM” value rises from 8.7% to 12.5%.

Going from FC(F)(F)COc1nc(N2CCCCC2)nc(N2CCNCC2)n1 to COc1ccccc1Nc1nc(N)nc(CN(C)C2CCCCC2)n1, the “hERG current change (%, negative = inhibition) at 1uM” value falls from 7.46% to -11.7%.

First: Cc1ccc(C)c(Oc2cc(F)nc(N)n2)c1
Second: Cc1cc(C)c(S(=O)(=O)Nc2ccccn2)c(C)c1
The “hERG current change (%, negative = inhibition) at 1uM” value of the first is lower: 12.3% for the first, 12.8% for the second.

Compared with O=C(Nc1ccccn1)C1CCN(S(=O)(=O)c2ccccc2)CC1, Cc1c(S(=O)(=O)c2ccccn2)c(N)n(Cc2ccccc2)c1C is higher in “hERG current change (%, negative = inhibition) at 1uM” value: 0.537% for the first, 9.74% for the second.

First: N#C/C=C(/N)N1CCN(c2ccc(Cl)c(Cl)c2)CC1
Second: COc1ccc(N2CCN(C(=O)/C=C/c3ccco3)CC2)cc1
The “hERG current change (%, negative = inhibition) at 1uM” value of the first is lower: -19.2% for the first, 6.52% for the second.

Going from CC(C)c1ccc(NC(=O)C(c2ccccc2)N(C)C(=O)CCc2c[nH]c3ccccc23)cc1 (centres unmarked) to O=C(CSc1nc2ccccc2c(=O)n1-c1ccccc1)NCc1ccc2c(c1)OCO2, the “hERG current change (%, negative = inhibition) at 1uM” value rises from 7.01% to 13.5%.

First: CCCn1nnnc1NCc1c(F)cccc1Cl
Second: CCNC(=S)NCc1ccc(Cl)cc1
The “hERG current change (%, negative = inhibition) at 1uM” value of the first is higher: 14.8% for the first, -2.06% for the second.

Going from CN(C(=O)CSc1nnc(-c2cccnc2)o1)C1CCCCC1 to Cn1c(SCC(=O)Nc2nnc(-c3ccccc3)o2)nnc1C1CC1, the “hERG current change (%, negative = inhibition) at 1uM” value rises from 8.91% to 9.34%.

Compared with CCC(C)Sc1nc2ccccc2c(=O)[nH]1 (centres unmarked), Cc1cc(C)nc(N(C#N)Cc2cccc3ccccc23)n1 is higher in “hERG current change (%, negative = inhibition) at 1uM” value: 4.32% for the first, 15.9% for the second.

Going from COCCOCCn1c(/C=C/c2ccccc2)nc2ccccc21 to COc1ccc(C(=O)NCCCSc2ccccc2)cc1F, the “hERG current change (%, negative = inhibition) at 1uM” value rises from 0.416% to 13.3%.

First: CCOc1ccc(Br)cc1S(=O)(=O)Nc1ccc(Cl)c(S(=O)(=O)N(CC)c2ccccc2)c1
Second: CC(=O)Nc1ccc(OS(=O)(=O)c2cc(Cl)ccc2C)cc1
The “hERG current change (%, negative = inhibition) at 1uM” value of the first is higher: 24.9% for the first, 13.6% for the second.

Going from Cn1c(=O)c(=O)n(C)c2cc(S(=O)(=O)CCC(=O)Nc3c(F)c(F)c(F)c(F)c3F)ccc21 to COc1cccc(NC(=O)Cn2c3ccc(F)cc3c3nc4n(c(=O)c32)CCCS4)c1, the “hERG current change (%, negative = inhibition) at 1uM” value rises from 12% to 12.2%.

Compared with Cc1sc(NC(=O)CN2CCCC2)nc1-c1ccc2c(c1)CCN2C(=O)c1cccc(F)c1, CCN1C(=O)c2ccccc2Sc2ccc(C(=O)N3CCC4(CC3)OCCO4)cc21 is lower in “hERG current change (%, negative = inhibition) at 1uM” value: 9.35% for the first, 7.42% for the second.

First: O=C(CSc1nnc(Cc2ccc(Cl)cc2)o1)Nc1ccccc1
Second: O=C(NCCSc1ccccc1)c1ccc(Br)cc1
The “hERG current change (%, negative = inhibition) at 1uM” value of the first is lower: 6.02% for the first, 10.3% for the second.

Going from COC(=O)C1=C(c2cccc(OCc3ccccc3)c2)C[C@@H]2CC[C@H]1N2C(=O)NCc1ccccc1OC to COc1cccc(C(=O)Nc2nc(-c3ccccc3)c(-c3ccccc3)o2)c1, the “hERG current change (%, negative = inhibition) at 1uM” value falls from 10.6% to 7.38%.

Going from S=c1[nH]nc(COc2ccc(Cl)cc2)n1Cc1ccco1 to CCOc1ccc(N2C(=O)CSC2=S)cc1, the “hERG current change (%, negative = inhibition) at 1uM” value rises from 14.5% to 19%.

Going from Cc1nc2ccc(C(=O)N3CCSCC3)cc2s1 to CC1CCN(C(=O)c2[nH]cnc2C(=O)N[C@H](C)c2ccccc2)CC1, the “hERG current change (%, negative = inhibition) at 1uM” value rises from 7.04% to 14.9%.

Compared with COc1ccc(N2CCN(C(=O)CCCn3c(=O)c4cccn4c4cccnc43)CC2)cc1, CCOC(=O)N1CCN(S(=O)(=O)c2cc(-c3nn4c(C)nnc4c4ccccc34)ccc2C)CC1 is lower in “hERG current change (%, negative = inhibition) at 1uM” value: 0.127% for the first, -12.2% for the second.

First: O=C(NCc1ccco1)c1nc(-c2ccccc2)n(-c2ccccc2)n1
Second: O=C1CC(c2ccco2)CC(O)=C1C=Nc1ccccc1-c1ccccc1 (centres unmarked)
The “hERG current change (%, negative = inhibition) at 1uM” value of the first is lower: 0.641% for the first, 10.1% for the second.

Compared with COc1ccc(CCNC(=O)c2c(-c3ccccc3)noc2C)cc1OC, CCN(CC)c1ccc(NC(=O)c2cc3ccccc3o2)c(C)c1 is higher in “hERG current change (%, negative = inhibition) at 1uM” value: 11.3% for the first, 14.8% for the second.

Going from CC(C)CN(C(=O)CN(C)S(=O)(=O)c1ccc(Cl)cc1)C1CCS(=O)(=O)C1 (centres unmarked) to O=S(=O)(N/N=C/c1ccc2c(c1)OCCO2)c1ccc(Cl)cc1, the “hERG current change (%, negative = inhibition) at 1uM” value falls from 1.14% to -2.64%.

Going from Cc1ccc(C(=O)N[C@H](C(=O)Nc2sccc2C(N)=O)C(C)C)cc1 to CC(C)CNC(=O)COC(=O)CCC(=O)c1ccc(F)cc1, the “hERG current change (%, negative = inhibition) at 1uM” value falls from 19.1% to 6.41%.

Going from Cl.Nc1nc2nc[nH]c2c(=O)[nH]1 to COc1ccc(C(=O)n2nc(C#N)c(C#N)c2N)cc1, the “hERG current change (%, negative = inhibition) at 1uM” value rises from 10.1% to 14.9%.

First: Cc1nc(N)sc1C(=O)N/N=C/c1ccc([N+](=O)[O-])cc1
Second: Cc1ccc(NC(=O)/C=C/c2cccc([N+](=O)[O-])c2)nc1
The “hERG current change (%, negative = inhibition) at 1uM” value of the first is higher: 12.4% for the first, 7.93% for the second.

First: CCOC(=O)c1c(C)n(-c2ccc(C)cc2)c2ccc(OCC(O)CNCCCO)cc12.Cl (centres unmarked)
Second: CC(=O)N1CC(C)Sc2ccc(S(=O)(=O)NCCc3ccc(C)cc3)cc21 (centres unmarked)
The “hERG current change (%, negative = inhibition) at 1uM” value of the first is higher: 6.85% for the first, 4.69% for the second.

Going from CC(C)NC(=S)NC1(C)CCS(=O)(=O)C1 (centres unmarked) to Cc1ccccc1NC(=O)N(C(C)C)C(C)C, the “hERG current change (%, negative = inhibition) at 1uM” value falls from 8.84% to 0.671%.

Compared with CCOC(=O)c1ccc(N2C(=O)CC(N3CCC(O)(c4ccc(Br)cc4)CC3)C2=O)cc1 (centres unmarked), CCOC(=O)N1CCC(NC(=O)Cc2cn(C)c3ccccc23)CC1 is lower in “hERG current change (%, negative = inhibition) at 1uM” value: 4.01% for the first, 3.15% for the second.

Compared with CCN(CC)CCCNC(=O)c1cc2c(-c3ccc(Cl)cc3)nn(C)c2s1, CN(C)S(=O)(=O)n1cc(/C=C(\NC(=O)c2ccccc2F)C(=O)NCCCN2CCOCC2)c2ccccc21 is higher in “hERG current change (%, negative = inhibition) at 1uM” value: -6.9% for the first, -3.1% for the second.

Going from O=C(c1c[nH]c(=O)n(-c2ccccc2)c1=O)N1CCc2ccccc21 to [N-]=C=C1C(=S)NC(=O)[C@H]([n+]2ccccc2)[C@H]1c1ccc(Cl)cc1, the “hERG current change (%, negative = inhibition) at 1uM” value rises from 9.21% to 13.9%.

First: CCC(c1nnc(SCC(=O)Nc2cc(Cl)ccc2C#N)n1C1CCCCC1)N(C)C (centres unmarked)
Second: COCC(O)CSc1c([N+](=O)[O-])nc(C)n1Cc1ccc(OC)c([N+](=O)[O-])c1 (centres unmarked)
The “hERG current change (%, negative = inhibition) at 1uM” value of the first is higher: 9.91% for the first, -3.3% for the second.

First: CC[C@H](C)[C@@H](C(=O)N1CCNCC1)n1cc([C@@H](N)CO)nn1.Cl
Second: CN1CCN(C(=O)C2CCC(=O)N(CCc3cccc(F)c3)C2)CC1 (centres unmarked)
The “hERG current change (%, negative = inhibition) at 1uM” value of the first is lower: -4.1% for the first, 10.6% for the second.

First: COc1ccc(CNC(=O)c2ccc(Cl)c(NC3=NC4CS(=O)(=O)CC4S3)c2)cc1 (centres unmarked)
Second: CCOc1ccc(N(CC(=O)Nc2ccc(OC)cc2)C2=NC3CS(=O)(=O)CC3S2)cc1 (centres unmarked)
The “hERG current change (%, negative = inhibition) at 1uM” value of the first is lower: 11.1% for the first, 13.3% for the second.

First: COc1ccc(CNC(=S)NCc2ccc(OC)cc2)cc1
Second: COc1ccc(N(C(=O)c2cccnc2)S(=O)(=O)c2ccc(Cl)cc2)cc1
The “hERG current change (%, negative = inhibition) at 1uM” value of the first is higher: 11.2% for the first, 4.89% for the second.

Compared with O=C(O)CC(NC(=O)C12CC3CC(CC(C3)C1)C2)c1ccc2c(c1)OCO2 (centres unmarked), CCOc1ccc(OCC)c(NC(=O)C2C3C=CC(O3)C2C(=O)NCc2ccco2)c1 (centres unmarked) is lower in “hERG current change (%, negative = inhibition) at 1uM” value: 12.3% for the first, -6.3% for the second.

For CN1c2ccc([N+](=O)[O-])cc2C(C)(C)C12C=Cc1cc(C(=O)O)ccc1O2 (centres unmarked), the “hERG current change (%, negative = inhibition) at 1uM” value was 13%.
